PubChem BioAssay AID886 (National Center for Advancing Translational Sciences (NCATS), 2007)
Where “and” joins values, the source holds several entries; their conditions need not be identical. Identical values can stand only once. Screen size: about 73,000 compounds; about 2,500 (3.4%) were called active. This list was built around the results that the source calls inconclusive (neither active nor inactive); the mix of calls is not that of the screen. Calls follow the shape of the dose curve; as a rule, active = well fitted inhibition curve with a large enough effect; inconclusive = small, poorly fitted or top-dose-only effect; inactive = no such curve, though single readings can be large or run the other way. A potency beside an inconclusive call is a rough fit, not a confirmed value.

molecular target: 3-hydroxyacyl-CoA dehydrogenase type-2 (Homo sapiens) (UniProt Q99714); test: qHTS Assay for Inhibitors of HADH2 (Hydroxyacyl-Coenzyme A Dehydrogenase, Type II); settings: recombinant HADH2, NADH fluorescence, beta-hydroxybutyryl-CoA; series mostly up to 57.1 µM; activity change, negative = inhibition: at the top concentration; also: nearly all actives have a fitted effect of over 60% in size
Summary of the method: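 Activity measured as NADH fluorescence gain (360/450 nm), taken as the change between first and last reads of a 4-min kinetic run. Conditions: pH 9.0 Tris buffer, 20 nM E. coli-expressed His-tagged enzyme, 1 mM NAD+, 90 uM beta-hydroxybutyryl-CoA; 15-min compound preincubation.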
% is scaled to controls: 0 for no effect and ±100 for the full control effect; potency is read from the fitted curve at half-maximal effect; tags tell the direction and shape of the fitted curve.

UniProt Q99714, sequence (Q99714 whole entry, looked up): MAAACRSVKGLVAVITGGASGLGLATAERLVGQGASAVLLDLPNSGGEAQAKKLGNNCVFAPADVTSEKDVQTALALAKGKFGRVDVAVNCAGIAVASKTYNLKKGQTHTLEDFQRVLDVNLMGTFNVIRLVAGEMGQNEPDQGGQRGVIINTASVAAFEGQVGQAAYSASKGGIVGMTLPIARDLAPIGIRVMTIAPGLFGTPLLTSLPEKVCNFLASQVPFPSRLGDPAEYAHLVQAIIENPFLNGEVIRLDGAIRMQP
UniProt Q99714, sequence (Q99714 whole entry, looked up): as above

Structure (SMILES) | Potency | activity change, negative = inhibition
O=C1CCc2c(ccc3ccccc23)O1 | active: 39.8 µM | 
Oc1cc(Cl)c(Cl)cc1Cl | inconclusive: 31.6 µM [inhibitor, partial curve] | 
C[n+]1c(/C=C\c2ccc(O)c3ncccc23)[se]c2ccccc21 | inconclusive: 1.26 µM [inhibitor, full curve] | 
N=C(N)SCc1ccc(Cl)c2ccccc12 (tested in a mixture with another compound) |  | inactive: 9.78% [at 11.4 µM] and inactive: 7.43% [at 11.4 µM]
C[C@@H]1O[C@H](O[C@H]2C[C@@H](O)[C@]3(CO)[C@H]4[C@H](O)C[C@]5(C)[C@@H](C6=CC(=O)OC6)CC[C@@]5(O)[C@H]4CC[C@]3(O)C2)[C@@H](O)[C@H](O)[C@H]1O |  | inactive: -10.6%
COc1cc(-c2ccc(N)c(OC)c2)ccc1N | active: 31.6 µM | 
O=CN1C[C@H]2C[C@@H](C1)c1cccc(=O)n1C2 |  | inactive: -5.28%
CN(C)c1ccc(/C=C2\CCCN=C2c2cccnc2)cc1 | inconclusive: 20 µM [inhibitor, partial curve] | 
N[C@@H](Cc1c[nH]c2ccccc12)c1nnc(SCc2ccccc2F)o1 | inconclusive: 39.8 µM [inhibitor, single point] | 
N[C@H](Cc1c[nH]c2ccccc12)P(=O)(O)O |  | inactive: 4.66% [at 11.4 µM]
COCCNC(=O)c1c(NC(=O)c2ccco2)n(Cc2ccccc2)c2nc3ccccc3nc12 | inconclusive: 31.6 µM [inhibitor, single point] | 
CN1CC[C@]2(C)c3cc(O)ccc3N(C)[C@@H]12 | inconclusive: 794 nM [inhibitor, full curve] and inconclusive: 7.94 µM [inhibitor, full curve] and inconclusive: 6.31 µM [inhibitor, partial curve] | 
c1ccc(SSc2ccccc2)cc1 | inconclusive: 1.58 µM [inhibitor, full curve] | 
CCN(CC)c1ccc(CC2C(=O)N(C)C(=O)N(C)C2=O)cc1 | inconclusive: 31.6 µM [inhibitor, single point] | 
Cc1nc2c(c(C)nn2-c2ccccc2)c(C)c1CCC(=O)N1CCC2(CC1)OCCO2 | inconclusive: 20 µM [inhibitor, partial curve] | 
CCCCC1(C2CCCC2)Cc2cc(OCCCC(=O)O)c(Cl)c(Cl)c2C1=O (configuration not stated) |  | inactive: -3.44%
N#CSCSC#N | inconclusive: 0.501 µM [inhibitor, full curve, poor fit] | 
O=C1CC(=O)N(c2ccc3c(c2)OCO3)C(=O)N1 | inconclusive: 10 µM [inhibitor, partial curve] | 
c1ccc2c(c1)[nH]c1ccccc12 | active: 25.1 µM | 
CN1CCc2cc3c(cc2[C@@H]1O)OCO3 | active: 12.6 µM | 
Cc1ccccc1-n1c(O)c(C=Nc2ccc(N(C)C)cc2)c(=O)[nH]c1=O | active: 5.01 µM | 
CC(=O)c1cccc(OCC(O)CN2CC=C(c3ccccc3)CC2)c1 (configuration not stated) |  | inactive: -2.77%
CC(=O)[C@@H]1CC[C@H]2[C@H]3CC[C@H]4C[C@@H](O)CC[C@]4(C)[C@@H]3CC[C@]12C |  | inactive: 11.2%
O=C(Nc1ccccc1)N1CC[C@@]2(CCCNC2)C1 | inconclusive: 39.8 µM [inhibitor, single point] | 
CCCn1c(=O)c2[nH]c(C3CCCC3)nc2n(CCCOC(=O)c2ccc(S(=O)(=O)F)cc2)c1=O | active: 20 µM | 
O=c1cccc2n1C[C@@H]1C[C@H]2CN2CCCC[C@H]12 | active: 31.6 µM | 

Structure (SMILES) | Potency | activity change, negative = inhibition
COC(=O)C(C)Oc1cc(C)cc2oc(=O)c3c(c12)CCC3 (configuration not stated) | active: 12.6 µM | 
CCOc1ccc2[nH]c(=O)c(CN(CCO)C3(c4nnnn4C4CCCCC4)CCCCC3)cc2c1 | inconclusive: 39.8 µM [inhibitor, single point] | 
CCN(CC)C(=O)N[C@H]1C=C2c3cccc4[nH]cc(c34)C[C@@H]2N(C)C1 | active: 15.8 µM | 
Cc1sc2ccccc2c1CC1=NCCN1 | inconclusive: 15.8 µM [inhibitor, partial curve] | 
COC[C@@H]1OC(=O)c2coc3c2[C@]1(C)C1=C(C3=O)[C@H]2CCC(=O)[C@]2(C)C[C@@H]1OC(C)=O | inconclusive: 3.98 µM [inhibitor, single point] | 
CCN(CC)C(=O)N[C@@H]1C=C2c3cccc4[nH]cc(c34)C[C@@H]2N(C)C1 | active: 25.1 µM | 
CN[C@@H](C)[C@@H](O)c1ccccc1 | active: 1.58 µM | 
c1cc(CCN2CCCCC2)ccn1 |  | inactive: -0.238% [at 11.4 µM]
CCCNc1oc(-c2cccc3ccccc23)nc1C#N | active: 25.1 µM | 
N[C@@H]1C[C@H]1c1ccccc1 | inconclusive: 5.01 µM [inhibitor, single point] | 
CN1C[C@H](C(=O)N[C@]2(C)O[C@@]3(O)[C@@H]4CCCN4C(=O)[C@H](Cc4ccccc4)N3C2=O)C=C2c3cccc4[nH]cc(c34)C[C@H]21 | inconclusive: 1.58 µM [inhibitor, full curve] | 
N=C(N)c1c(O)n(C2CCCCC2)c(=O)n(C2CCCCC2)c1=O |  | inactive: -10.4%
COc1cc(CNC(=O)CCCC/C=C/C(C)C)ccc1O | inconclusive: 39.8 µM [inhibitor, single point] | 
CCC(=Nc1ccc2c(c1)CCC2)c1c(O)n(C)c(=O)n(C)c1=O | inconclusive: 39.8 µM [inhibitor, single point] | 
CC[C@H](CO)NC(=O)[C@H]1C=C2c3cccc4[nH]cc(c34)C[C@H]2N(C)C1 | active: 31.6 µM | 
CN(C)CCCc1cccnc1 |  | inactive: 4.17% [at 11.4 µM]
Oc1c(Cl)c(Cl)cc(Cl)c1Cl | inconclusive: 31.6 µM [inhibitor, partial curve] | 
CCCCCCCCCCCCCC(=O)O[C@H]1[C@@H](C)[C@@]2(O)[C@@H](C=C(CO)C[C@]3(O)C(=O)C(C)=C[C@@H]23)C2C(C)(C)[C@]21OC(C)=O (some centres not stated) | inconclusive: 39.8 µM [inhibitor, single point] | 
CN1CCc2cc(O)cc3c2[C@H]1Cc1ccc(O)c(O)c1-3 | active: 1.58 µM | 
Cc1cc(C)n2nc(C)[n+](C)c2n1 | inconclusive: 25.1 µM [inhibitor, single point] | 
O=C(C[C@H](c1ccccc1)c1c(O)c2ccccc2oc1=O)c1ccccc1 | inconclusive: 3.16 µM [inhibitor, partial curve] | 
Cc1ccc(N=Cc2c(O)n(C)c(=O)n(C)c2=O)nc1 | inconclusive: 25.1 µM [inhibitor, single point] | 
Cc1occc1C(=O)N1CCC2(CC1)OCCO2 |  | inactive: -4.85%
Oc1ccc(Cl)cc1Cl | inconclusive: 39.8 µM [inhibitor, single point] | 
CCOC(=O)CC(SP(=S)(OC)OC)C(=O)OCC (configuration not stated) | inconclusive: 3.98 µM [inhibitor, full curve] | 
O=C(Oc1ccccc1)N1CCC[C@@]2(CCN(Cc3ccccc3)C2)C1 |  | inactive: -0.128%

Structure (SMILES) | Potency | activity change, negative = inhibition
S=c1[nH]c2ccccc2[nH]1 | inconclusive: 39.8 µM [inhibitor, single point] | 
C[C@]1(O)CC[C@H]2[C@@H]3[C@@H](O)CC4=CC(=O)CC[C@@]4(C)[C@H]3CC[C@]21C |  | inactive: 4.11% [at 11.4 µM]
O=c1c2ccccc2[se]n1-c1ccccc1 | active: 3.98 µM and active: 3.16 µM and active: 2.51 µM | 
CCCc1cc2c(n1Cc1ccco1)C(C)C1CN(C(=O)c3ccccc3)C(C)(C(=O)OC)C21 (configuration not stated) | inconclusive: 31.6 µM [inhibitor, single point] | 
COc1cc2c(cc1OC)C(C(=O)N1CCC3(CC1)OCCO3)C(c1ccccc1F)N(C)C2=O (configuration not stated) |  | inactive: 2.32%
C[C@]12CC[C@H]3[C@@H](CCC4=CC(=O)CC[C@@]43C)[C@@H]1CC[C@@H]2O | inconclusive: 31.6 µM [inhibitor, partial curve] | 
COc1cc2c(cc1O)C[C@H]1c3c(cc(OC)c(O)c3-2)CCN1C | active: 31.6 µM | 
CNc1ccc2oc(C[C@H]3O[C@]4(CC[C@H]3C)O[C@H]([C@H](C)C(=O)c3ccc[nH]3)[C@H](C)C[C@H]4C)nc2c1C(=O)O | active: 25.1 µM | 
O=Nc1ccc(Nc2ccccc2)cc1 | active: 3.16 µM | 
CCOC(=O)CBr |  | inactive: -3.07%
Oc1c(Br)c(Br)c(Br)c(Br)c1Br | active: 31.6 µM | 
COc1cc2[nH]c(=O)n(-c3ccccc3)c(=O)c2cc1OC | inconclusive: 6.31 µM [inhibitor, single point] | 
Oc1cc2c(cc1O)[C@H]1c3ccccc3CN[C@H]1CC2 | active: 0.0631 µM | 
CC(C)OC(=O)c1c(N)n(CC2CCCO2)c2nc3ccccc3nc12 (configuration not stated) | active: 7.94 µM | 
Cc1ccc(-n2nc(C)c3c2OC(N)=C(C#N)C3c2cccs2)cc1 (configuration not stated) | inconclusive: 39.8 µM [inhibitor, single point] | 
[Cl-].[Cl-].[Hg+2] | active: 0.251 µM | 
CC(=O)OCC1=C(C(=O)[O-])N2C(=O)[C@@H](NC(=O)CCC[C@@H](N)C(=O)[O-])[C@@H]2SC1.[Zn+2] | inconclusive: 31.6 µM [inhibitor, single point] | 
NC(=O)CI | active: 15.8 µM | 
O=C(O)COc1ccc(Cl)cc1Cl | inactive | 
c1ccc(N2CCCC3(CCNCC3)C2)nc1 |  | inactive: -19.1%
O=c1ccc2cc(O[C@H]3O[C@@H](CO)[C@@H](O)[C@@H](O)[C@@H]3O)c(O)cc2o1 | active: 12.6 µM | 
COCCCn1c(N)c(C(=O)NCCC(C)C)c2nc3ccccc3nc21 | inconclusive: 31.6 µM [inhibitor, single point] | 
N#CC(C#N)=Cc1ccc(O)c(O)c1 | active: 25.1 µM | 
CN1C(=O)C(Cc2ccsc2)C(=O)N(C)C1=O | inconclusive: 31.6 µM [inhibitor, single point] | 
CC(=O)c1c(O)c(C)c(O)c(Cc2c(O)c3c(c(C(=O)/C=C\c4ccccc4)c2O)OC(C)(C)C=C3)c1O | active: 12.6 µM and active: 1 µM | 
